Experimental findings from PubChem BioAssay AID1745853 (National Center for Advancing Translational Sciences (NCATS), 2022) are described below.

What all share (experiment): Primary Screen for Target Class Profiling of Small Molecule Inhibitors of Methyltransferases
Assay [1] concerns the target Glycine N-methyltransferase (Homo sapiens) (UniProt Q14749). Conditions: purified enzyme, MTase-Glo SAH luminescence; measured here: GNMT inhibition; at 40 µM; stronger effect = lower value. A digest of the protocol: (§1)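 Each enzyme was reacted with SAM and its substrate, with compounds tested once at 40 uM; SAH formed was read by MTase-Glo luminescence.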
Assay [2] deals with Guanidinoacetate N-methyltransferase (Homo sapiens) (UniProt Q14353). Conditions: purified enzyme, MTase-Glo SAH luminescence; measured here: GAMT inhibition; at 40 µM; stronger effect = lower value. A digest of the protocol:
as §1

The target in assay [3] is Histamine N-methyltransferase (Homo sapiens) (UniProt P50135). The following applies: purified enzyme, MTase-Glo SAH luminescence; measured here: HNMT inhibition; at 40 µM; stronger effect = lower value. The method in brief:
as §1

Assay [4] concerns the target Nicotinamide N-methyltransferase (Homo sapiens) (UniProt P40261). Conditions: purified enzyme, MTase-Glo SAH luminescence; measured here: NNMT inhibition; at 40 µM; stronger effect = lower value. A digest of the protocol:
as §1

In assay [5] the target is Phenylethanolamine N-methyltransferase (Homo sapiens) (UniProt P11086). Conditions: purified enzyme, MTase-Glo SAH luminescence; measured here: PNMT inhibition; at 40 µM; stronger effect = lower value. A digest of the protocol:
as §1

Structures are written as SMILES. Some of the results follow. The main result of the screen is listed elsewhere. These columns were measured beside it and carry no call. Peptide text beside a SMILES is read from it. * marks the point of attachment. Cbz = O=C(OCc1ccccc1)*; CH2Cl = ClC*
% is set by controls: 0 for no effect and ±100 for the full control effect.

As for `CC(C)C[C@H](NC(=O)CNC(=O)OCc1ccccc1)C(=O)N[C@@H](Cc1ccccc1)C(=O)CCl` (Cbz-Gly-Leu-Phe-CH2Cl), the activity change, negative = inhibition in assay [1] is -5.09%; in assay [2], 7.89%; in assay [3], 4.67%; in assay [4], -6.15%; in assay [5], -0.295%.

On to `CC(CNC(=O)CCc1nnc2n(Cc3ccccc3)c(=O)c3ccccc3n12)c1ccccc1` (stereo not given), for which the activity change, negative = inhibition is -12.5% in assay [1]; 6.61% in assay [2]; -1.44% in assay [3]; -11.4% in assay [4]; -10.2% in assay [5].

Take `Cc1c(O)cc2c(c1O)COC1(O)CCCOC21` (stereo not given): the activity change, negative = inhibition in assay [1] was 3.31%; in assay [2] it was 5.45%; in assay [3] it was 6.12%; in assay [4] it was -6.91%; in assay [5], 2.5%.

For the compound `CC(C)Cn1c(=O)c2cc(F)ccc2n2c(SCC(=O)NC3CCCCC3)nnc12`, the activity change, negative = inhibition in assay [1] worked out at 5.02%; in assay [2], 1.81%; in assay [3] it was 11.6%; in assay [4], 9.68%; in assay [5] it was 8.83%.

As for `Cc1c(Cl)cccc1NC(=O)CN(C)S(=O)(=O)c1ccc2[nH]c3c(c2c1)CCCC3`, the activity change, negative = inhibition was -2.19% in assay [1]; 0.759% in assay [2]; -3.66% in assay [3]; 0.594% in assay [4]; 0.864% in assay [5].

Consider `O=C(CCc1nc2ccccc2s1)N[C@@H]1CCOC[C@H]1OCCO`, for which the activity change, negative = inhibition in assay [1] was -3.06%; in assay [2], -2.26%; in assay [3] it was -0.755%; in assay [4] it was -4.1%; in assay [5], 0.708%.

For the compound `CC1=C[C@@H](CNC2CCOCC2)[C@H](C(C)C)C[C@H]1Cc1nc2ccc(F)cc2[nH]1`, the activity change, negative = inhibition was 0.153% in assay [1]; 2.74% in assay [2]; -49.9% in assay [3]; -16% in assay [4]; 11.1% in assay [5].

Take `CCCCN1C(=O)c2cc(C(=O)Nc3cc(C)cc(C)c3)nn2CC1(C)C(=O)NC1CCCC1` (stereo not given): the activity change, negative = inhibition in assay [1] was 7.71%; in assay [2], 3.63%; in assay [3], -38.4%; in assay [4] it was 2.09%; in assay [5] it was 5.36%.

With `COc1ccc(C[C@H]2COC(=O)[C@@H]2Cc2ccc(O[C@@H]3O[C@H](CO)[C@@H](O)[C@H](O)[C@H]3O)c(OC)c2)cc1OC`, the activity change, negative = inhibition is 1.49% in assay [1]; -1.09% in assay [2]; 6.33% in assay [3]; -10.7% in assay [4]; -6.06% in assay [5].

`O=C(Nc1ccc(F)cc1)N1Cc2c(sc3c2CCCC3)-n2cccc2C1c1cccc(F)c1` (stereo not given): the activity change, negative = inhibition is -0.804% in assay [1]; 3.05% in assay [2]; 3.09% in assay [3]; -1.98% in assay [4]; 1.81% in assay [5].

Turning to `Cc1nc(N2CCN(C(=O)C(C)Oc3ccccc3)CC2)cc(C(F)(F)F)n1` (stereo not given), the activity change, negative = inhibition in assay [1] was -3.13%; in assay [2], -0.505%; in assay [3] it was -1.27%; in assay [4], -9.11%; in assay [5] it was 8.83%.

With `C(=C\c1ccccc1)/CN1CCN(C(c2ccccc2)c2ccccc2)CC1`, the activity change, negative = inhibition in assay [1] is -7.58%; in assay [2], 1.15%; in assay [3], -0.866%; in assay [4], -11.1%; in assay [5], 2.2%.

For `CCc1cc2c(cc3n2CC(C)(C(=O)NC2CCCCCC2)N(CCN2CCCC2)C3=O)s1` (stereo not given), the activity change, negative = inhibition in assay [1] is 3.95%; in assay [2] it was 2.3%; in assay [3], -4.04%; in assay [4], 0.864%; in assay [5] it was -0.899%.

As to `CCCn1c(=O)c2cc(F)ccc2n2c(SCC(=O)NCc3ccc(Cl)cc3)nnc12`, the activity change, negative = inhibition in assay [1] was -1.98%; in assay [2], 0%; in assay [3], 8.55%; in assay [4], -0.441%; in assay [5], 3.41%.

With `Cc1n[nH]c(C)c1CNC(=O)C1CCN(c2cn[nH]c(=O)c2)C1` (stereo not given), the activity change, negative = inhibition in assay [1] is -0.662%; in assay [2], 0.541%; in assay [3], 1.09%; in assay [4], -2.38%; in assay [5] it was 1.46%.

Consider `COc1ccc2c(c1)c(CC(=O)O)c(C)n2C(=O)c1ccc(Cl)cc1`, for which the activity change, negative = inhibition is -10.1% in assay [1]; 4.01% in assay [2]; -0.43% in assay [3]; -9.76% in assay [4]; -1.58% in assay [5].

As for `CCCN1C(=O)c2cc3occc3n2CC1(C)C(=O)NC1CCC(C)CC1` (stereo not given), the activity change, negative = inhibition is -1.66% in assay [1]; 2.97% in assay [2]; -2.96% in assay [3]; 5.38% in assay [4]; 0.096% in assay [5].

On to `CC(C)Cn1c(=O)c2ccc(C(=O)NC(C)C)cc2n2c(SCc3ccccc3)nnc12`, for which the activity change, negative = inhibition stood at 5% in assay [1]; 0% in assay [2]; 8.02% in assay [3]; 3.87% in assay [4]; 5.26% in assay [5].

Regarding `Cc1ccc(-c2noc(-c3cccc(S(=O)(=O)N4CCN(c5cc(C)ccc5C)CC4)c3)n2)cc1`, the activity change, negative = inhibition in assay [1] was -8.05%; in assay [2] it was -3.8%; in assay [3], -12.6%; in assay [4], -13%; in assay [5], -10.8%.

Take `Nc1nc2ccc(OC(F)(F)F)cc2s1`: the activity change, negative = inhibition was 4.67% in assay [1]; 10.7% in assay [2]; 9.28% in assay [3]; -8.16% in assay [4]; -5.58% in assay [5].

With `CCCN1CCC(c2cccc(S(C)(=O)=O)c2)CC1`, the activity change, negative = inhibition in assay [1] was 0.107%; in assay [2], -2.99%; in assay [3], 4.37%; in assay [4], -12.2%; in assay [5] it was 0.6%.

Regarding `Cc1cc(C)cc(N2C(=O)c3cc(-c4cccs4)nn3CC2(C)C(=O)NC2CCCCC2)c1` (stereo not given), the activity change, negative = inhibition was -1.03% in assay [1]; 0% in assay [2]; -0.634% in assay [3]; 7.6% in assay [4]; 0.2% in assay [5].

`CC1CCCC(NC(=O)C2(C)Cn3c(nc4ccccc43)C(=O)N2Cc2ccc3c(c2)OCO3)C1C` (stereo not given): the activity change, negative = inhibition was 4.16% in assay [1]; 0% in assay [2]; 6.21% in assay [3]; -4.95% in assay [4]; 1.96% in assay [5].

Regarding `CC(C)CCNC(=O)C1c2c(n(C)c3ccccc23)SCC(=O)N1Cc1ccc(Cl)cc1` (stereo not given), the activity change, negative = inhibition in assay [1] was 3.92%; in assay [2], -3.64%; in assay [3] it was 2.3%; in assay [4], -4.63%; in assay [5], 1.04%.

`CCOC(=O)c1cc2n(n1)CC(C)(C(=O)NCCC(C)C)N(c1cc(C)cc(C)c1)C2=O` (stereo not given): the activity change, negative = inhibition in assay [1] was 0.04%; in assay [2] it was 0%; in assay [3], 1.89%; in assay [4], 0.111%; in assay [5] it was 1.23%.

Regarding `CC1(C(=O)NC2CCCCCC2)Cn2c(cc3occc32)C(=O)N1Cc1cccc(Br)c1` (stereo not given), the activity change, negative = inhibition in assay [1] was -3.74%; in assay [2], 1.2%; in assay [3], -1.6%; in assay [4], -15.3%; in assay [5] it was -3.8%.

Regarding `CCCN1C(=O)c2cc3ccc(OC)cc3n2CC1(C)C(=O)NC1CCCC1` (stereo not given), the activity change, negative = inhibition in assay [1] came out at 1.14%; in assay [2], 0.451%; in assay [3], 7.84%; in assay [4] it was 6.98%; in assay [5] it was 0.784%.

On to `NCCc1noc(Cc2ccccc2)n1`, for which the activity change, negative = inhibition in assay [1] came to 2.17%; in assay [2] it was 0.085%; in assay [3], 2.24%; in assay [4] it was 0.934%; in assay [5] it was 3.4%.

Take `CC1(C)O[C@@]2(C)CC[C@@H]1C[C@@H]2OC1OC(CO)C(O)C(O)C1O` (stereo not given in full): the activity change, negative = inhibition in assay [1] was -0.321%; in assay [2] it was -4.68%; in assay [3], 1.99%; in assay [4], -15.7%; in assay [5] it was 2.37%.

For the compound `CCc1ccccc1NC(=O)Cn1nc2n(CC(C)C)c(=O)c3ccc(C(=O)NCC(C)C)cc3n2c1=O`, the activity change, negative = inhibition came out at 7.68% in assay [1]; 0.496% in assay [2]; 11.5% in assay [3]; 5.04% in assay [4]; 6.64% in assay [5].
